Data as given in the supplement of paper PMC4967469.

What was measured:
Test in all cases: Viability of human cancer cell lines after 72 h of drug (GDSC screen)
[1] = compound: C=C(c1ccc(C(=O)O)cc1)c1cc2c(cc1C)C(C)(C)CCC2(C)C [Bexarotene]; settings: top dose 8 µM
Protocol: (§1)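 Human cancer cell lines in 384-well plates, medium with 10% serum, drug for 72 h over a 256-fold dose range (nine 2-fold or five 4-fold steps up to the top dose). Adherent lines were fixed and stained with the nucleic acid dye Syto60, suspension lines read with resazurin; signal relative to control wells, capped at 0 and 100%. One two-parameter sigmoid per drug and line, fitted in a mixed model over all curves with the slope shared within a line.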

[2] = compound: COc1cc(C(=O)NC2CCN(C)CC2)ccc1Nc1ncc2c(n1)N(C1CCCC1)C(C)CC(=O)N2C [NPK76-II-72-1]; settings: top dose 10.24 µM; top dose inferred
Protocol: as §1

[3] = compound: COc1ccc(C(=O)CC2(O)C(=O)Nc3c(Cl)ccc(Cl)c32)cc1 [YK 4-279]; settings: top dose 10 µM
Protocol: as §1

[4] = compound: Cc1ccc2nc(NCCN)c3ncc(C)n3c2c1 [BMS-345541]; settings: top dose 16 µM
Protocol: as §1

[5] = compound: NC(=O)Nc1cc(-c2cccc(F)c2)sc1C(=O)N[C@H]1CCCNC1 [AZD7762]; settings: top dose 2 µM
Protocol: as §1

[6] = compound: O=C(O)c1ccc(-c2c[nH]c3ncc(-c4ccccc4)cc23)cc1C1CCCC1 [GSK-650394]; settings: top dose 16 µM; top dose inferred
Protocol: as §1

[7] = compound: Oc1nc(-c2ccc(C(F)(F)F)cc2)nc2c1CSCC2 [XAV 939]; settings: top dose 5 µM; top dose inferred
Protocol: as §1

Row | Cell Line | AUC [1] | IC50 [1] | AUC [2] | IC50 [2] | AUC [3] | IC50 [3] | AUC [4] | IC50 [4] | AUC [5] | IC50 [5] | AUC [6] | IC50 [6] | AUC [7] | IC50 [7]
1 | MOLP-8 (myeloma, suspension) | 0.985 | > 8 µM | 0.523 | 0.737 µM | 0.722 | 2.58 µM | 0.453 | 0.749 µM | 0.647 | 0.313 µM | 0.969 | > 16 µM | 0.985 | > 5 µM
2 | MV-4-11 (leukaemia, suspension) | 0.457 | 0.391 µM | 0.707 | 2.17 µM | 0.636 | 1.37 µM | 0.81 | 6.63 µM | 0.021 | < 0.00781 µM | 0.23 | 0.198 µM | 0.98 | > 5 µM
3 | Mewo (melanoma, adherent) | 0.973 | > 8 µM | 0.984 | > 10.2 µM | 0.817 | 7.03 µM | 0.91 | > 16 µM | 0.65 | 0.355 µM | 0.973 | > 16 µM | 0.979 | > 5 µM
4 | NCI-H23 (lung adenocarcinoma, adherent) | 0.982 | > 8 µM | 0.938 | > 10.2 µM | 0.607 | 1.22 µM | 0.898 | > 16 µM | 0.725 | 0.541 µM | 0.986 | > 16 µM | 0.965 | > 5 µM
5 | NCI-H187 (small cell lung carcinoma, suspension) | 0.987 | > 8 µM | 0.629 | 1.5 µM | 0.986 | > 10 µM | 0.906 | > 16 µM | 0.946 | > 2 µM | 0.984 | > 16 µM | 0.982 | > 5 µM
6 | NCI-H441 (lung adenocarcinoma, adherent) | 0.886 | > 8 µM | 0.968 | > 10.2 µM | 0.811 | 8.31 µM | 0.969 | > 16 µM | 0.887 | > 2 µM | 0.863 | > 16 µM | 0.953 | > 5 µM
7 | NCI-H446 (small cell lung carcinoma, semi-adherent) | 0.985 | > 8 µM | 0.272 | 0.136 µM | 0.623 | 1.4 µM | 0.857 | 14.5 µM | 0.714 | 0.529 µM | 0.895 | > 16 µM | 0.897 | > 5 µM
8 | NCI-H460 (large cell lung carcinoma, adherent) | 0.987 | > 8 µM | 0.938 | > 10.2 µM | 0.688 | 1.98 µM | 0.916 | > 16 µM | 0.553 | 0.172 µM | 0.72 | 3.92 µM | 0.989 | > 5 µM
9 | NCI-H520 (lung squamous cell carcinoma, adherent) | 0.963 | > 8 µM | 0.643 | 1.61 µM | 0.833 | 6.73 µM | 0.858 | 13.9 µM | 0.843 | 1.49 µM | 0.848 | 12.5 µM | 0.972 | > 5 µM
10 | NCI-H661 (large cell lung carcinoma, adherent) | 0.949 | > 8 µM | 0.834 | 8.7 µM | 0.721 | 3.06 µM | 0.819 | 11.6 µM | 0.578 | 0.214 µM | 0.859 | > 16 µM | 0.906 | > 5 µM
11 | NCI-H716 (large intestine, suspension) | 0.976 | > 8 µM | 0.753 | 4.22 µM | 0.81 | 7.03 µM | 0.67 | 3.39 µM | 0.721 | 0.633 µM | 0.976 | > 16 µM | 0.965 | > 5 µM
12 | NCI-H838 (lung adenocarcinoma, adherent) | 0.985 | > 8 µM | 0.829 | 6.7 µM | 0.743 | 3.21 µM | 0.976 | > 16 µM | 0.583 | 0.213 µM | 0.971 | > 16 µM | 0.855 | 4.26 µM
13 | NCI-H1048 (small cell lung carcinoma, adherent) | 0.983 | > 8 µM | 0.492 | 0.611 µM | 0.785 | 3.82 µM | 0.835 | 9.02 µM | 0.825 | 1.05 µM | 0.701 | 3.43 µM | 0.983 | > 5 µM
14 | NCI-H1417 (small cell lung carcinoma, suspension) | 0.981 | > 8 µM | 0.602 | 1.29 µM | 0.729 | 3.21 µM | 0.809 | 10.4 µM | 0.581 | 0.217 µM | 0.843 | 14.6 µM | 0.943 | > 5 µM
15 | NCI-H1703 (lung adenocarcinoma, adherent) | 0.951 | > 8 µM | 0.936 | > 10.2 µM | 0.657 | 1.88 µM | 0.879 | > 16 µM | 0.199 | 0.0126 µM | 0.926 | > 16 µM | 0.944 | > 5 µM
16 | NCI-H1876 (small cell lung carcinoma, adherent) | 0.987 | > 8 µM | 0.863 | 9.04 µM | 0.751 | 3.32 µM | 0.877 | > 16 µM | 0.638 | 0.302 µM | 0.982 | > 16 µM | 0.964 | > 5 µM
17 | NCI-H1993 (lung adenocarcinoma, adherent) | 0.945 | > 8 µM | 0.925 | > 10.2 µM | 0.739 | 3.81 µM | 0.904 | > 16 µM | 0.98 | > 2 µM | 0.983 | > 16 µM | 0.965 | > 5 µM
18 | NCI-H2110 (non-small cell lung carcinoma, adherent) | 0.943 | > 8 µM | 0.727 | 2.88 µM | 0.836 | 6.85 µM | 0.886 | > 16 µM | 0.672 | 0.381 µM | 0.926 | > 16 µM | 0.985 | > 5 µM

The IC50 comes from the fitted curve, where viability falls to half of the control; fits outside the tested doses are given as limits. AUC is the area under the same curve over the 256-fold range up to the top dose, as a fraction; it is 1 without any effect and falls as sensitivity rises. For part of these data: The top dose, if marked as inferred, is not printed in the source and was worked back from the curve model.
